# Data taken from paper PMC12136788.
# The list shows a part of the results.
# T1: UNK ZnF1-3 (human, UniProt Q9C0B0 31-174)
# T1 sequence: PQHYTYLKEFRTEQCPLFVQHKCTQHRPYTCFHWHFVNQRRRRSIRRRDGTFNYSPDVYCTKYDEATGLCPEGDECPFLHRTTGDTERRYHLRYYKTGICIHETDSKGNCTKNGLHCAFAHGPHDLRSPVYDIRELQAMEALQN
# B1: 34520397_34521566_398_CDS_ENSMUSG00000037235_ENSMUST00000042701|mouse|control|control (ssRNA)
# RNA: GGGAGUUCUACAGUCCGACGAUCCUCCUCCAGUUUCUUGAUGUGCAUCUUAGCACGCUUCAGAAGGCUCAGAGUAGUGUGACGUGUGCUGUCAGGGCCCAGGGGUACCAGCUGCUUGAGCUGCUCCAAGUAGAGCCUGAGUUUCAACAGAGGAUUGAGCAUCA
# B2: chr1:171562549:171562550:+_ENSG00000117523_ENST00000495585|hu_hu|FALSE|FALSE (ssRNA)
# RNA: GGGAGUUCUACAGUCCGACGAUCUGUAGAUAAGACCUUACAUAUUUAAUACAGUGCGUUACCCCUGUACAAAUGGAAAAAAAUUAAGUUUAACGUUUCUAGACCAAUAUGGCUGUUAAUUUCUGUACAAUGCCAACUCAACACCAACAGAGGAUUGAGCAUCA
# B3: chr11:75578903:75578904:+_ENSMUSG00000020849_ENSMUST00000067664|mus_mus|FALSE|FALSE (ssRNA)
# RNA: GGGAGUUCUACAGUCCGACGAUCUAGCUUCAAGUUACACGUACUGAACAAAAGAGGUUGAGCGAGCGAAGGAGGGGAGGAGGGAGGCCGAGGAGGAGGGAGGAGGAACAGAGUUGAACACGCAUGCAGGCUUCCAUACCACCUCAACAGAGGAUUGAGCAUCA
# B4: chr17:57762449:57762450:+_ENSG00000141367_ENST00000269122|hu_mus|FALSE|FALSE (ssRNA)
# RNA: GGGAGUUCUACAGUCCGACGAUCUUCGUGUUUUUCCAAACGCUGAGCAAGUGAGAUGUUGUCAAAGUUGUCAUAAGCAUCUAUUGAUGUUCGCAGAGCCUGGUAAUCUUCUUCAGUAAUAAAGAGGUUGUUCAGUGAUUCAUUCAACAGAGGAUUGAGCAUCA
# B5: chr4:95589192:95589193:+_ENSG00000163110_ENST00000317968|hu_hu|FALSE|FALSE (ssRNA)
# RNA: GGGAGUUCUACAGUCCGACGAUCAAAAUUAAAGAGACAGAAGAUAGACAUUAACAGAUAAGGCAACUUAUACAUUGAGAAUCCAAAUCCAAUACAUUUAAACAUUUGGGAAAUGAGGGGGACAAAUGGAAGCCAGAUCAAAUUCAACAGAGGAUUGAGCAUCA
# B6: 70526834_70526954_91_5pUTR_ENSMUSG00000054693_ENSMUST00000067880|mouse|control|control (ssRNA)
# RNA: GGGAGUUCUACAGUCCGACGAUCCGCGACCGGCGCUGGGUCCCGACGAGCCUCCCCGGCAGUGGCACCCGGCGAAGCGCCUCCCUCUCGCUCCACUUCAGGGGCCCAGCCGCGCGCCCUGCUCCGCCAAAACAGGGCCCUCCCCAACAGAGGAUUGAGCAUCA
# B7: chr8:121455507:121455508:-_ENSG00000172172_ENST00000306185|hu_hu|motif|central (ssRNA)
# RNA: GGGAGUUCUACAGUCCGACGAUCUGAAGUCUUAUAGAUGCCAUAGCAGCAAGUUUGCCAGGUGGCUGCAUUUUCCCAUCGGAGAGAUACCAUAUUCUAGCAAAAGUGGCCCAUUGCUGGGGCGCCCUAGAGAAACUCGACAUACAACAGAGGAUUGAGCAUCA
# B8: chr18:56900473:56900474:+_ENSMUSG00000024590_ENSMUST00000025486|mus_mus|motif|central (ssRNA)
# RNA: GGGAGUUCUACAGUCCGACGAUCAACAUCUAUCUCUUCAAUGCACACGUUCCCCGUGGCUGAGGCAGAGUGGGAAAUGCGGACACUGCUGCUCGCCUCCGACUCCUCCACAUCAACUCUCUUCCGCUUUCCUCUGGUGGUGCGCAACAGAGGAUUGAGCAUCA
# B9: chr11:75570464:75570465:+_ENSMUSG00000020849_ENSMUST00000067664|mus_hu|FALSE|FALSE (ssRNA)
# RNA: GGGAGUUCUACAGUCCGACGAUCACGGUCAGGGGAAUUAAGAAUUUCGUAGUAGAAUACGGAAAAAUUGAGAGCAAGACCUAAGCGAAUAGGAUGCGUUGGUGGAAGUUCUGUCAUUGCAAUAUCACUAGCAGCUUUAUAAGCCAACAGAGGAUUGAGCAUCA
# B10: 134016149_134016269_1505_CDS_ENSG00000151640_ENST00000338492|human|control|control (ssRNA)
# RNA: GGGAGUUCUACAGUCCGACGAUCGCGGCCCGCCCCCGGGGUGACAAACAUCUUCCCGUCCUCCAGCGCCACUCGGCCCUGACUUAUGACCACGGCAGGCGCUCCCCGGCACUCCACUCCCUCGAAGAUGUUGUACUCCACGUUCAACAGAGGAUUGAGCAUCA
# B11: chr1:137271502:137271503:-_ENSMUSG00000041889_ENSMUST00000041240|mus_hu|FALSE|FALSE (ssRNA)
# RNA: GGGAGUUCUACAGUCCGACGAUCCAGUCCUCGCCGGCCAGCACCAGGGGAGCCCCCAGCACCAACAGAGCGAUUGCGGUGAGCGGCGCGGCCCGGCGGAGCCCCGCGGGUGGCAUGGUGGGGGCUGGGCGCGGCCGGGGUCGGCAACAGAGGAUUGAGCAUCA
# B12: chr5:138651791:138651792:+_ENSG00000015479_ENST00000502499|hu_hu|FALSE|FALSE (ssRNA)
# RNA: GGGAGUUCUACAGUCCGACGAUCCCCCCAAGAUGAAAUGAGGGAGGUGGAGGUCCCAGAAUUCCUGGUGCUGGAUUUGUAGACUGCUGCAACAUGAAUGGAUCACCCAUUGUGUGUCCUGUAUCAUUGUCAGGAUUCCAUUCUCAACAGAGGAUUGAGCAUCA
# B13: chr1:33857880:33857881:-_ENSMUSG00000042197_ENSMUST00000044455|mus_mus|motif|central (ssRNA)
# RNA: GGGAGUUCUACAGUCCGACGAUCUCUUGAAAACACCCAGUCACACUUUAUAUCUCAAGGAUUUCACAACGACGUCGGGACGGAUGGCAUCCCUCUUUAUUUCAAGAGAGAUCAGAUUGUCAGGCAUGUUUGAAAUUCUUGCUCCAACAGAGGAUUGAGCAUCA
# B14: 131124709_131124829_5008_3pUTR_ENSMUSG00000048911_ENSMUST00000059372|mouse|control|control (ssRNA)
# RNA: GGGAGUUCUACAGUCCGACGAUCACGAAGAAUUUGGAUACGUGCUGAGCUAACUGGAAUAAAAGCAUCUUGAAAUAAUUUGGGUUCUAAAGCUGAACUUGAAAACUGAUAGGUCCUGUUAAUCUUAUUUAAAAAACCUUUACCCAACAGAGGAUUGAGCAUCA
# B15: chrX:69798090:69798091:-_ENSMUSG00000031343_ENSMUST00000055966|mus_mus|mus_mus_mus_hu_False|18_18 (ssRNA)
# RNA: GGGAGUUCUACAGUCCGACGAUCAAGUCCCCGGGUUCUUGUCGUCUUGAUUCCCCUUGACCAGUGGUUCCAGGGAGAAUAUUAAUCAGGAAAAGAAUCCCAAGGCUGGUCAUGUAAAAGUGCCACAUUUGUGUGAUUAUCAUCCAACAGAGGAUUGAGCAUCA
# B16: chr1:163115887:163115888:-_ENSG00000143248_ENST00000313961|hu_hu|FALSE|FALSE (ssRNA)
# RNA: GGGAGUUCUACAGUCCGACGAUCUUAGAAAAAAUUCUAGCAAGACUUAUAAUCAUGAAAUACAGAAUUAAAAGUUUAAACCUACCAAAAGUCCUAUGGCCUAUUAUUUAGCUGUGAAUGAGACACGUCAGGAGUAUAAAUCUGCAACAGAGGAUUGAGCAUCA
# B17: chr7:149068622:149068623:-_ENSMUSG00000025139_ENSMUST00000001950|mus_hu|mus_mus_mus_hu_False|8_88 (ssRNA)
# RNA: GGGAGUUCUACAGUCCGACGAUCGUGAGGCCUCUGAGUGUGGCUUGUGCUCUGCAGUGGGUUAGAGUUGUUAAUAUCACGGAACAUACCAUCUAGAACGUUCCAGUCCCGCCUGACACCUUCAUUCGCAAGAGGGCAGAAAUCCAACAGAGGAUUGAGCAUCA
# B18: chr14:24607556:24607557:+_ENSG00000092010_ENST00000206451|hu_mus|FALSE|FALSE (ssRNA)
# RNA: GGGAGUUCUACAGUCCGACGAUCGUCACCCACGUGGGGCUGCUUGGCUGCUUUGGCCACGGCGUCACCCCUCUCGGAGAAGUACUUGGAGAUCUGCGUGUGGAAGCCUUCCAGCUUGGUGUGAAGGUUGGUCAUCAGCUCAAACAACAGAGGAUUGAGCAUCA
# B19: chr16:16330038:16330039:-_ENSMUSG00000022789_ENSMUST00000023477|mus_mus|FALSE|FALSE (ssRNA)
# RNA: GGGAGUUCUACAGUCCGACGAUCACUUUUAUCAUCCACCGGUUCACCAUAGCUAUUUAGAAGAGACUGAUACUGAGCAGCUAAGACAUUUAUUCUUGUUUUCAGCUCUGGUAAACAAUCUCUGAUAUGAUGCAUAAGUAACCUCAACAGAGGAUUGAGCAUCA
# B20: chr16:23113652:23113653:+_ENSMUSG00000022884_ENSMUST00000115341|mus_mus|motif|central (ssRNA)
# RNA: GGGAGUUCUACAGUCCGACGAUCCCACAAGUAUAUUAUUAAAUGAUAGAGAACAUCUAAUACAACCAUUUCUACAUAACGGGUAAAUGAAUUUCUAAGAAAAAAAGAUUUUACAGACCCCAUCUUUUAUACCCACCCCCAACACAACAGAGGAUUGAGCAUCA
# B21: chr2:64323713:64323714:-_ENSG00000197329_ENST00000358912|hu_hu|motif|central (ssRNA)
# RNA: GGGAGUUCUACAGUCCGACGAUCGCUUUGUACUGACUGUGUAUCAGAAUUACUUUGACUUCCAGGAACCGUGUCAGUUACGGCAAAAUCAAUGGGGCUUUCAGUCGACCGGCCAAUCUGAAACAUAUCGGUGUUGCUGUCAUGCAACAGAGGAUUGAGCAUCA
# B22: chr16:91657502:91657503:+_ENSMUSG00000022961_ENSMUST00000114036|mus_hu|motif|central (ssRNA)
# RNA: GGGAGUUCUACAGUCCGACGAUCUCUAGGUGCUAACCUAUAUGGCCUGGGUGCUAUUCUAUAGGACCUGGGUGCGGUCCUGUAGGGUCUAGGUGACAUCCUAUAGGGAUCAGGAGUUAGUCUGUAGGGAUCAUGGCCUAAUCUCAACAGAGGAUUGAGCAUCA
# Molecular target: T1, UNK ZnF1-3
# Assay: nsRBNS (natural sequence RNA bind-n-seq); RBNS binding buffer (assumed for nsRBNS): 25 mM Tris pH 7.5, 150 mM KCl, 3 mM MgCl2, 0.01% Triton X-100, 500 ug/ml BSA, 20 U/ml SUPERase-In, 4 C; UNK is unkempt and MSI1 is Musashi-1; names of the RNAs are library labels; protein concentration not given here; high values mean tight binding
row,Binder,binding signal [enrichment R]
1,B1,0.787
2,B2,0.867
3,B3,1.81
4,B4,0.767
5,B5,2.88
6,B6,0.61
7,B7,1.06
8,B8,0.76
9,B9,1.22
10,B10,0.744
11,B11,1.06
12,B12,1.26
13,B13,0.674
14,B14,1.67
15,B15,0.674
16,B16,0.875
17,B17,0.847
18,B18,0.962
19,B19,0.772
20,B20,2.7
21,B21,0.589
22,B22,0.549
